Source: the RNAGym collection of RNA variant scans (doi:10.7554/elife.90254)
The source gives no read counts; variants with many changes may rest on few reads.

B1: LINE1-mini (parent)
chain: GGCAGAGCUCAACACAGCGUGGCAAAGUGGCUGUGGCUAGACUGCC

Variants of: B1
Assay: self-cleavage, relative activity (ratio to wild type); higher = more cleavage; in vitro, sequencing; the parent is a self-cleaving ribozyme

Variant	self-cleavage
GGCAGAGCACAACACAGUGUGCCAAAGUGGCUGUGGCUAGACUGCC	0.04
GGCAGAGCACAACACAGCGUGGCAAAGUGCCUCUGGCUAGACUGCC	0.02
GGCAGAGCACAACACAGCGUGGUAAAUUGUCUGUGUCUAGAACGCC	0.03
GGCAGAGCACAACAUAGCUUGGCAAAGAGGCUGUGGCUAGACUGCA	0.04
GGCAGAGCACAACACAGCGUGGAAAAGUGUCUGUGGCUAGACUGCC	0.05
GGCAGAGCACAACACAGCGUGGCAAAUUGGCUGUUGCUAGACUGCC	0.11
GGCAGAGCACAACACAUUGUGGCAAAGUGGCUGUGGCUAGACUUCC	0.02
GGCAGAGCACAACACAGCAUGGCAAAGUGGCUGUGGCUGAACUGCC	0.06
GGCAGAGCACAACACAGUGUGGCAAAGUGGCUGUGACUUGACUGCC	1.02
GGCAGAGCACAACACAAAGUGGCAAAGUGGAUGUGGCUAGACUGAC	0.06
GGCAGAGCACAACACAGAGUGACAAAGUGGCUGUGGCUAUACUGCC	0.01
GGCAGAGCACAACACAGGGUGGCAAAGUGGCUGUAGCUAGACUGCC	0.13
GGCAGAGCACAACACAGCGUGGCAAAGUAGCUAUGGCUAGACUGCC	0.13
GGCAGAGCACAACAGAGCGUGGCAAAGUGGCUUUGGCUAGACUGCC	0.14
GGCAGAGCACAACAUAGCGUGGCAAACUGGCUGUGACUAGACAGCC	0.07
GGCAGAGCACAACACAGCGAGGCAAAGUGGAUGUGGCUAGACUGCC	0.05
GGCAGAGCACAACACAGCGUGGCAAAGUGUCUGUGGCUAGACUGCU	0.02
GGCAGAGCACAACACAGCGUGGCAAAGUGAAUGUAGAUAGACUGCC	0.11
GGCAGAGCACAACACAGCGUUGCAAAGUGGCUGUGGCUAGAUUGCC	0.03

Variant	self-cleavage
GGCAGAGCACAACACAACGUGGCAAAGUGGCUGUGGCUAGCCUGCC	0.02
GGCAGAGCACAACAGAGCUUGGCAAAGUGGAUGUCGCUAGACUGCC	0.11
GGCAGAGCACAACACAGCGUGGCAAAGUGUCUGUGGCGAGACUGCA	0.09
GGCAGAGCACAACACAGAGUGGAAAAUUGGCUGUGGCUAGACUGCC	0.15
GGCAGAGCACAACACAGCGUUGCCAAGUGGCUGUGGCUAGACUCCC	0.12
GGCAGAGCACAACACAGCGUGUCAAAGUGGCUGUGGCAAGACUGGC	0.16
GGCAGAGCACAACACAGAGUGGCAAAGUGGCUGUACAUAGACUGCC	0.04
GGCAGAGCACAACACAGCGUAGAAAAGUGGCGGUGUCUAGACUGAC	0.26
GGCAGAGCACAACACAGCUUGGCACAGUGGCUGUGGCUAGACUGCC	0.08
GGCAGAGCACAACACAGCGUGGCAAAGUUGCUGUGGCAACACUGCC	0.03
GGCAGAGCACAACACAGCGUGGCAAAGUGGCUGUGGCUAGAGUGGC	0.13
GGCAGAGCACAACACAACGUGGCAAAGUGGCUGCGGCUAGACUGCG	0.09
GGCAGAGCACAACACAGCGUGUCAACGUGGCUGUGGCUAGGCUGCC	0.1
GGCAGAGCACAACACAGCGUGGCAAAGUGGCUUUGGCUAGACUGGC	0.04
GGCAGAGCACAACAGUGCGUGGCAAAGAGGCUGUGGGUAGACUGCC	0.01
GGCAGAGCACAACACAACGUGGCAAAGUGGCUGUCGCUAAACUGCC	0.03
GGCAGAGCACAACACAGCGUAGCAAAGUGGCUGUGGCUGGACUGCC	0.21
GGCAGAGCACAACACAGCGUGGCAAAGUGGCUGUGGCUAGAUUGUC	0.22
GGCAGAGCACAACACAGCGUGGCAAAGUGGCUGUGGAUAGACUGUC	0.16

Variant	self-cleavage
GGCAGAGCACAACACAGCGUGGCAAAGUGGCUGUGGAUAGACUGAC	0.17
GGCAGAGCACAACACAGCGUGGUAAAGUGACUGUGGCUAGACUGCC	0.04
GGCAGAGCACAACACAGCAUGGCAAAGUGGCUGUGGCGAGAAUGCC	0.05
GGCAGAGCACAACACAGUGUGGCAAAGUGGCCGUGGCUAGACUGCC	0.05
GGCAGAGCACAACACAGAGUGGCAAAGUGGCUGUGGUCAGACUGCA	0.04
GGCAGAGCACAACACAGCGUGUGAAAGUGGUUGUGGCAAGACUGCC	0.02
GGCAGAGCACAACACAGCAUACCAAAGUGGCUGUGGCUAGACUGCC	0.05
GGCAGAGCACAACACAGUGUGGCAAACUGGCUGUGGCUAGACUGCC	0.12
GGCAGAGCACAACACAGCUUGGCAAAGUGGCUGUGGCUACACUGCC	0.04
GGCAGAGCACAACACAGCGUGGCAAAGUGGCUGUGCCUAGACUGCA	0.1
GGCAGAGCACAACAGAGCGUGGCAAAGUUGCUGUGGUGGGACAGCC	0
GGCAGAGCACAACACAGCGUGGCAAAAAGGCUGCGGCUAGACCGCC	0.06
GGCAGAGCACAACACAGCGUGACAAAGGGGCUGUGGCUAGACUGCC	0.01
GGCAGAGCACAACACAGCGUGGUAAAGGGGCUGUGGCUAGACUGCC	0.04
GGCAGAGCACAACACACCGUGGCAAAGUGGAUGUGGCUAGACUGGC	0.18
GGCAGAGCACAACACAGCGUGGCAAAUUGGCUGUGUCUAGACUGCC	0.19
GGCAGAGCACAACACAGCGUGUCAAAGUAGCUGUGACUAGACUGCC	1.53
GGCAGAGCACAACACAGCGUGGCAAAGUGGUUGUGGCUAGACCGCC	0.04
